In PubChem BioAssay AID1645887 (National Center for Advancing Translational Sciences (NCATS), 2021) one finds activation and Potency data, which are given here for 81 compounds.

Molecules are shown by their SMILES. Several values for one entry are separate records, joined by “and”; a condition that tells them apart may be missing. Equal values may be shown once. Hit rate of the full screen: of about 16,000 compounds, about 40 (0.2%) were called active. Roughly 1% stayed inconclusive and do not appear here. Calls follow the shape of the dose curve; as a rule, active = well fitted activation curve with a large enough effect; inconclusive = small, poorly fitted or top-dose-only effect, or another doubt; inactive = no such curve, though single readings can be large or run the other way. The list shows a part of the results. Positions of bridges follow the written chain, without caps; N, C: chain ends. Non-standard residues stand in square brackets, D forms with d. Residues, ends and D or L forms follow the SMILES beside them. *: point of attachment. Dab(CH2SO3H) = N[C@@H](CCNCS(=O)(=O)O)C(=O)O; hArg = N=C(N)NCCCC[C@H](N)C(=O)O; X8 = CC[C@@H](C)CCCCC(=O)*; Dab = NCC[C@H](N)C(=O)O; Mpa = O=C(O)CCS
% is scaled to controls: 0 for no effect and ±100 for the full control effect; potency is read from the fitted curve at half-maximal effect.

The target of this assay is Rap guanine nucleotide exchange factor 4 (Homo sapiens) (UniProt Q8WZA2). As to the kind of experiment: Validation qHTS for agonist of cAMP-regulated guanine nucleotide exchange factor 4 (EPAC2).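 As to activation: exchange makes BODIPY-GDP fluorescence drop when released from Rap1B; series mostly up to about 150 µM.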 To be noted: EPAC2 Rap1B BODIPY-GDP exchange, fluorescence; activation: stronger effect = higher value. The method, boiled down: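 Fluorescent exchange assay: 100 nM EPAC2 with 250 nM RAP1B-BODIPY-GDP and 50 uM GDP; compound added, 5 min at room temperature, then read (ex 480/em 540 nm) every 5 min for 30 min. Normalized to 6.5 mM cAMP agonist control.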
UniProt Q8WZA2, sequence (Q8WZA2 whole entry, looked up): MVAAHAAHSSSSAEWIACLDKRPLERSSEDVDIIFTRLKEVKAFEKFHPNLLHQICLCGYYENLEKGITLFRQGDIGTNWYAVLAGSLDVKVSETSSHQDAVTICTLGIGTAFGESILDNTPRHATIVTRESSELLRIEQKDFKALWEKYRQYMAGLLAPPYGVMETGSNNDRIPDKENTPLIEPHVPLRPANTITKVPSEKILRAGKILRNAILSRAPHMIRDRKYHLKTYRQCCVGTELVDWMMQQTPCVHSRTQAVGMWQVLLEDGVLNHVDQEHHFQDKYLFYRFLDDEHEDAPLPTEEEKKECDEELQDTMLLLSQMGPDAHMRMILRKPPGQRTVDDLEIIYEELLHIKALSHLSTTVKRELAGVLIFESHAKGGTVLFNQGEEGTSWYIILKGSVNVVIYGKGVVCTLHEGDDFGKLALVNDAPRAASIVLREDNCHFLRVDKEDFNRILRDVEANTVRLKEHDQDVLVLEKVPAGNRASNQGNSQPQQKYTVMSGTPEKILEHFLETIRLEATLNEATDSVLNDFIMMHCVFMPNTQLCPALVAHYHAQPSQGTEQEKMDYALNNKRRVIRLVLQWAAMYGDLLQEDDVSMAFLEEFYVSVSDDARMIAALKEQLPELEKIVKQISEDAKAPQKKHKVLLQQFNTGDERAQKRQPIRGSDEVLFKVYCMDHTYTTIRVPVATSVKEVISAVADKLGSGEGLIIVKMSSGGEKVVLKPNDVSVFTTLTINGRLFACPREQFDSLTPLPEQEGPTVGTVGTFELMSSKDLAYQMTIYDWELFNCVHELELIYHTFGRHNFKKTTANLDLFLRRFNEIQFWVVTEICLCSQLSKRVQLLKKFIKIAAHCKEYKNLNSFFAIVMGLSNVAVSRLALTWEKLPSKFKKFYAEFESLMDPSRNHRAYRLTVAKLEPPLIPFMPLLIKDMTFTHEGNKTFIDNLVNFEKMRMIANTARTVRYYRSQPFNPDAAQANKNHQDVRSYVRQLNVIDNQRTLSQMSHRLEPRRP
(Quantitative high-throughput screening tests each substance at several concentrations.)
For `CSC(=N)N`, the activation is inactive: -2.14% and inactive: -15.7%.

With `O=c1c(CCc2ccccc2)nc2cncnc2n1Cc1ccccc1Cl`, the activation is inactive: -25.1%.

As for `CN(C)Cc1ccccc1-c1nc(N(C)Cc2ccco2)c2ccccc2n1`, the activation is inactive: -5.11%.

Take `CN(CCCN1c2ccccc2CCc2ccccc21)CC(=O)c1ccc(Cl)cc1`: the activation is inactive: 13.3%.

On to `CC(=O)[C@@]1(O)[C@H](O)CC2C3CCC4CC(O)CC[C@]4(C)C3CC[C@@]21C` (stereo partly specified), for which the activation was inactive: -20.8%.

In the case of `O=C1CCN(Cc2cccnc2)CCN1[C@H](CO)c1ccccc1`, the activation is inactive: -1.15%.

In the case of `CN(C)c1cc(NC(=O)CNC(C)(C)C)c(O)c2c1C[C@@H]1C[C@H]3[C@H](N(C)C)C(=O)C(C(N)=O)=C(O)[C@@]3(O)C(=O)C1=C2O`, the activation was inactive: -9.07%.

Turning to `CCCCCCCCCC[n+]1ccc(/C=C/c2c[nH]c3ccccc23)c2ccccc21`, the activation is inactive: -5.9%.

In the case of `COc1cc(/C=C\c2ccc(OC)cc2OC)cc(OC)c1`, the activation is inactive: -2.88%.

In the case of `O=C(Nc1cccc(F)c1)N1CC[C@@]2(CCCN(C(=O)c3ccco3)C2)C1`, the activation was inactive: -13%.

Take `Cc1cc(C(=O)NCC2CCC3(CCN(Cc4cc(F)ccc4F)CC3)O2)n(C)n1` (stereo unspecified): the activation is inactive: -2.93%.

For `COc1cc2c(c(OC)c1OC)-c1ccc(OC)c(=O)cc1C(NC(C)=O)CC2` (stereo unspecified), the activation is inactive: -9.19%.

As for `N#Cc1ccc(CN2CCC3(CC2)CCN(S(=O)(=O)c2ccccc2)CC3)cc1`, the activation is inactive: 0.696%.

On to `COc1ccccc1N1CCN(c2nc(CNC(=O)c3ccc4c(c3)OCO4)nc3ccccc23)CC1`, for which the activation was inactive: -0.552%.

For the compound `COc1cc(C)c(C(=O)Oc2cc(C)c(C(=O)O)c(O)c2C)c(OC)c1C`, the activation is inactive: -17.2%.

As for `O=C1NCC2(CCN(CCc3ccccc3)CC2)O1`, the activation was inactive: -0.785% and inactive: -5.15%.

With `O=C(NC1CCN(Cc2ccccc2)C1)c1cnn(-c2ncc3c(n2)-c2ccccc2CC3)c1C1CC1` (stereo unspecified), the activation is inactive: -4.15%.

With `Clc1ccc2c(c1)CCc1cccnc1C2=C1CCNCC1`, the activation was inactive: -8.09% and inactive: -1.94%.

Turning to `CCNc1ncc2ncc(=O)n(Cc3ccc(F)cc3)c2n1`, the activation is inactive: -6.85%.

Regarding `CC[C@@H](C)CCCCC(=O)N[C@@H](CCNCS(=O)(=O)O)C(=O)N[C@H](C(=O)N[C@@H](CCNCS(=O)(=O)O)C(=O)N[C@H]1CCNC(=O)[C@H]([C@@H](C)O)NC(=O)[C@H](CCNCS(=O)(=O)O)NC(=O)[C@H](CCNCS(=O)(=O)O)NC(=O)[C@H](CC(C)C)NC(=O)[C@@H](CC(C)C)NC(=O)[C@H](CCNCS(=O)(=O)O)NC1=O)[C@@H](C)O` (X8-[Dab(CH2SO3H)]T[Dab(CH2SO3H)][Dab][Dab(CH2SO3H)][dL]L[Dab(CH2SO3H)][Dab(CH2SO3H)]T; lactam 4-C), the activation was inactive: -10.2%.

As for `Cc1ncc2c(c1CNC(=O)c1ccccc1F)CCN(C(=O)c1ccccc1-n1cccn1)C2`, the activation was inactive: -26.7%.

Consider `O=C(Cn1c(=O)sc2ccc(Cl)cc21)N1CCN(CCO)CC1`, for which the activation is inactive: -25.1%.

As for `O=C1NC(=O)c2cc(Nc3ccccc3)c(Nc3ccccc3)cc21`, the activation was inactive: -31.3%.

For `CC1(C)OC[C@@H](COC(=O)CCc2ccc(OC[C@@H](O)CNCCNC(=O)N3CCOCC3)cc2)O1`, the activation is inactive: -11%.

As to `Cc1[nH]cnc1CN1CCc2c(c3ccccc3n2C)C1=O`, the activation was inactive: -8.19%.

As to `Cc1ncc(COP(=O)(O)O)c(CN)c1O`, the activation was inactive: -29.4%.

Take `O=C(O)C(O)C(O)(Cc1ccc(O)cc1)C(=O)O` (stereo unspecified): the activation was inactive: -5.01%.

Take `CCC1(C2CCN(Cc3ccoc3)CC2)NC(=O)N(CC2COc3ccccc3O2)C1=O` (stereo unspecified): the activation is inactive: -25.4%.

As to `Cc1ccc(SC[C@H](Cc2ccccc2)N2CC[C@@H](C(C)(C)C)CCC2=O)cc1`, the activation is inactive: -1.16%.

For `O=C(c1cn(CC2CCCN(Cc3cc4ccccc4s3)C2)nn1)N1CCCC1` (stereo unspecified), the activation is inactive: 0.314%.

For `N#CCCn1c(=O)c(-c2cccc(C#N)c2)nc2cnc(Oc3ccccc3)nc21`, the activation is inactive: -16%.

As for `O=C(C[n+]1cccc(Br)c1)c1ccc(F)cc1`, the activation is inactive: -17.1%.

As to `CCOC(=O)Cc1ccc(-c2ccccc2)cc1`, the activation was inactive: 3.25%.

As to `O=C(CCCCCN1CCN(c2ccccc2-c2ccccc2)CC1)NC1CCCc2ccccc21` (stereo unspecified), the activation is inactive: -11.3%.

`Cc1ccc(CN2C[C@H](Sc3ccccn3)C[C@H]2C(=O)Nc2ccc3sc(C)nc3c2)cc1`: the activation was inactive: -4%.

`CCNc1ncc2nc(CCc3ccccc3)c(=O)n(-c3ccccc3)c2n1`: the activation is inactive: -37.6%.

As to `Cc1cc2nc3c(=O)[nH]c(=O)nc-3n(C[C@H](O)[C@H](O)[C@H](O)CO)c2cc1C`, the Potency was active: 79.4 µM and active: 100 µM.

Consider `CC1CCC(C(C)(C)O)CC2=C1CCC2C` (stereo unspecified), for which the activation was inactive: -2.74%.

Turning to `c1cncc(CNc2ncncc2-c2ccc3c(c2)OCO3)c1`, the activation was inactive: -18.2%.

On to `CC(C)C(N)C(=O)OCCOCn1cnc2c(=O)[nH]c(N)nc21` (stereo unspecified), for which the activation was inactive: -19.4%.

In the case of `CC(C)NC[C@@H](O)COc1ccccc1-n1cccc1`, the activation was inactive: -22.1%.

As to `Cc1cnc(CNc2cc(-c3c(C)noc3C)ncn2)cn1`, the activation was inactive: -3.1%.

Consider `CC(=O)N1CCC2(CCCN(C(=O)Nc3cccc(F)c3)C2)CC1`, for which the activation was inactive: -13.9%.

For the compound `COC(=O)[C@@H]1C[C@@H](NC(=O)c2cnsn2)CN1Cc1ccc(Cl)cc1`, the activation is inactive: 2.25%.

Consider `O=C(c1csnn1)N1CCC2(CCCN(c3ccc(-c4ccccc4)cc3)C2)CC1`, for which the activation is inactive: 5.32%.

As for `COc1ccc(-n2c(=O)cnc3cnc(N4CCNCC4)nc32)cc1`, the activation was inactive: -13.1%.

With `Cc1cc(C)c2cccnc2c1O`, the activation was inactive: -21%.

As to `COc1cc2c(C=O)c3c4c(cc(OC)c(OC)c4c2cc1OC)CCN3C`, the activation is inactive: 29.2%.

Consider `CN1[C@@H]2CCC[C@@H]1CC(NC(=O)c1nn(C)c3ccccc13)C2` (stereo partly specified), for which the activation was inactive: -15.3%.

In the case of `COc1ccccc1-c1nccc(NCc2cccnc2)n1`, the activation was inactive: -10.8%.

Take `CN1CCN(c2cc(-c3ccc(N(C)C)cc3)ncn2)CC1`: the activation is inactive: -2.28%.

As to `CC1CCN(CC[C@H]2CCCN2S(=O)(=O)c2cccc(O)c2)CC1`, the activation was inactive: -6.12% and inactive: -29.8%.

Take `CC(=O)Nc1ccc(SC[C@H](Cc2ccccc2)N2CC[C@@H](C(C)(C)C)CCC2=O)cc1`: the activation was inactive: -25.1%.

`CC(=O)NCCNc1ccnc(-c2ccccc2C)n1`: the activation is inactive: -0.671%.

In the case of `COC(=O)C[C@H]1c2ccc(C(F)(F)F)cc2S(=O)(=O)N1Cc1ccccc1`, the activation was inactive: -7.96%.

With `Cc1cnc(-n2ncc(C(=O)NC(C)(C)CO)c2-c2cccs2)nc1-c1ccc(F)cc1`, the activation is inactive: -14.8%.

Take `COc1ccc(SC[C@H](Cc2ccccc2)N2CC[C@@H](NC(=O)OCc3ccccc3)CCC2=O)cc1`: the activation was inactive: 1.78%.

On to `CCCCC(CC)COC(=O)CC(C(=O)OCC(CC)CCCC)S(=O)(=O)O` (stereo unspecified), for which the activation is inactive: -62.8% and inactive: -63%.

With `Cc1noc(C)c1-c1cc(NC2CC2)ncn1`, the activation is inactive: -10.6%.

In the case of `O=C(NCc1ccncc1)c1cnn(-c2nccc(-c3cccs3)n2)c1C1CC1`, the activation is inactive: -7.47%.

For `Oc1ccc2c(c1)OCC1c3cc4c(cc3OC21)OCO4` (stereo unspecified), the activation is inactive: -9.87%.

As to `COc1ccc(C)cc1N1C(=O)[C@@H]2C[C@H]1CN2Cc1cccc(OC)c1O`, the activation was inactive: -11%.

On to `Cc1cc2c(cc1C)N[C@]1(C[C@H]3CCCC(=O)N4CC[C@@H](C1)[C@@H]34)C(=NCc1ccccc1)N2`, for which the activation was inactive: -29.6%.

`c1ccc2cc(C3=NCCN3)ccc2c1`: the activation was inactive: 7.5%.

On to `C#CCN(Cc1ccc(OC)cc1)S(=O)(=O)C=C`, for which the activation is inactive: -9.61%.

For the compound `CCCS(=O)(=O)NCc1c(C)ncc2c1CCN(C(=O)/C=C/c1cccc(Cl)c1)C2`, the activation is inactive: -14.5%.

With `COc1cc(C(O)CO)ccc1O` (stereo unspecified), the activation was inactive: -9.96%.

As to `O=C(c1ccncc1)N1CCC2(CC1)CCN(c1ccc(-c3ccccc3)cc1)CC2`, the activation is inactive: -7.17%.

As for `CC[C@H](C)[C@H](N)C(=O)O`, the activation is inactive: -24.3%.

With `CC(=O)SC[C@@H](C)C(=O)N1CCC[C@H]1C(=O)N[C@@H](Cc1ccccc1)C(=O)O`, the activation was inactive: -8.66%.

`NC[C@@H]1O[C@H](C23CC4CC(CC(C4)C2)C3)Cc2c1ccc(O)c2O`: the activation is inactive: -17.4% and inactive: 4.75% and inactive: -48.3%.

Consider `c1ccc2c(N3CCCCCC3)nc(CN3CCCCC3c3nccs3)nc2c1` (stereo unspecified), for which the activation is inactive: -20.2%.

For `Cc1cnc2ccc3ccccc3c2c1C`, the activation was inactive: -14.8%.

On to `Cn1cccc1C(=O)N1CCC[C@@]2(CCN(Cc3nccs3)C2)C1`, for which the activation was inactive: -11.3%.

Turning to `NC(=O)[C@@H]1CSSCCC(=O)N[C@@H](CCCCN=C(N)N)C(=O)NCC(=O)N[C@@H](CC(=O)O)C(=O)N[C@@H](Cc2c[nH]c3ccccc23)C(=O)N2CCC[C@H]2C(=O)N1` ([Mpa][hArg]GDWPC-NH2; disulfide 1-7), the activation was inactive: -3.2%.

On to `Cc1cccc(CNC(=O)c2cnn(-c3nccc(-c4ccccc4F)n3)c2C)n1`, for which the activation was inactive: -15.1%.

In the case of `CN1CCN(CCCN2c3ccccc3Sc3ccccc32)CC1`, the activation was inactive: 2.68%.

For `OCCN1CCN(Cc2ccc3c(c2)CN(Cc2cc4ccccc4o2)CCO3)CC1`, the activation was inactive: -12.7%.

Consider `C=C1C(=O)O[C@@H]2C3OC3(C)CC/C=C(\C)CC[C@@H]12` (stereo partly specified), for which the activation is inactive: -8.65%.

With `CCOC(=O)COc1ccc2c(C)c(CCN(CC)CC)c(=O)oc2c1`, the activation is inactive: -5.18%.

On to `O[C@@H]([C@H](O)[C@H](O)CBr)[C@H](O)CBr`, for which the activation is inactive: 5.93%.
